Assays:
serum albumin [1] = assay: 60 °C
serum albumin [2] = assay: 50 °C

B1: recombinant β2-microglobulin monomer with an additional methionine residue at the N terminus (natural protein)
chain: not shown
modifications: uniformly 15N-labelled in the NMR experiment only
Work on B1 yielded a Kd (serum albumin [1]) of 672 µM and a Kd (serum albumin [2]) of 395 µM.

From paper PMC9530240 (2022)
